Some of the results follow. At the low end of the ranking the order means little.

This assay has as its target SIX1-Q177R homeodomain (UniProt Q15475). Nature of the assay: universal protein binding microarray. As to conditions: Universal all-10-mer PBM (8x60K, AMADID 030236), 300 nM GST-tagged protein, Alexa Fluor 488 anti-GST; buffer, salt, pH and temperature not stated; high values mean tight binding; most listed sequences are background and not binding sites; double strand, one strand shown.
In the case of GTTATCTA, the binding signal is -0.224 E-score.

For the sequence AATCTACT, the binding signal was -0.124 E-score.

As to CCCGTATA, the binding signal was 0.0426 E-score.

For the sequence CATTTTGG, the binding signal was -0.256 E-score.

In the case of CAAAAATC, the binding signal is -0.259 E-score.

Turning to GCAGACGA, the binding signal was -0.306 E-score.

With TAAACGCA, the binding signal is -0.031 E-score.

Regarding CTAAAAGA, the binding signal was -0.0522 E-score.

Regarding CTCGCCAG, the binding signal turned out to be 0.145 E-score.

On to GACGCCAC, for which the binding signal was 0.201 E-score.

For the sequence CGATTTAG, the binding signal is -0.202 E-score.

In the case of GTACCCAA, the binding signal came to 0.0537 E-score.

Take ATATTATG: the binding signal is -0.114 E-score.

On to ATCTTGTA, for which the binding signal is -0.0562 E-score.

As for CCACTAGA, the binding signal came out at 0.0421 E-score.

On to ACGACGTC, for which the binding signal was -0.226 E-score.

For GAATCGTA, the binding signal amounted to 0.00537 E-score.

As to ACTTCATG, the binding signal came out at 0.00637 E-score.

Take ATGTATAG: the binding signal is -0.155 E-score.

CAGCCTCA: the binding signal is -0.134 E-score.

Take ATGACGCA: the binding signal was -0.0723 E-score.

As to ACAAACGC, the binding signal is -0.142 E-score.

On to AACGGCGT, for which the binding signal is 0.07 E-score.

In the case of ACCATAAC, the binding signal was determined as 0.0571 E-score.

With ACCATCTG, the binding signal was 0.0261 E-score.

For the sequence CTTCAGAA, the binding signal was -0.0508 E-score.

Take AATACTGA: the binding signal is -0.023 E-score.

On to CCGGATTA, for which the binding signal came to 0.0614 E-score.

Turning to GTGGCGCA, the binding signal was -0.0198 E-score.

As to CTAAAAAA, the binding signal was -0.0342 E-score.

With GCGTGCCC, the binding signal turned out to be 0.0457 E-score.

Regarding TCGGTACA, the binding signal was 0.219 E-score.

As for ACCGAGAG, the binding signal is 0.148 E-score.

As for TATTGTGA, the binding signal is -0.0714 E-score.

In the case of GTGGGTAA, the binding signal worked out at 0.107 E-score.

On to TATCGAGA, for which the binding signal was 0.0992 E-score.

With AACGGTGG, the binding signal stood at 0.0341 E-score.

On to CGGACTAG, for which the binding signal is -0.0947 E-score.

For CGGCGCAG, the binding signal was -0.181 E-score.

As for CCACGCGA, the binding signal worked out at 0.106 E-score.

For the sequence ACTACCGC, the binding signal is -0.169 E-score.

With ATCACCCA, the binding signal was -0.0423 E-score.

For the sequence TAGGTAGA, the binding signal is -0.115 E-score.

Regarding CCACGACC, the binding signal was -0.0272 E-score.

Turning to AAAGCCTG, the binding signal was -0.232 E-score.

In the case of TACCTGCA, the binding signal was -0.106 E-score.

Take CCCTCTAC: the binding signal is 0.205 E-score.

On to ACCATGTC, for which the binding signal was -0.0764 E-score.

Take CCCGTTCC: the binding signal is -0.0168 E-score.

Regarding ATAGTAAT, the binding signal is -0.162 E-score.

In the case of GAACCTGC, the binding signal is -0.00907 E-score.

In the case of GGCACTAA, the binding signal is -0.0391 E-score.

As for GGCGATAA, the binding signal was 0.0231 E-score.

Consider AACCCAAC, for which the binding signal stood at 0.0907 E-score.

In the case of ACATTACG, the binding signal is -0.192 E-score.

As to AACGGGTC, the binding signal was -0.069 E-score.

In the case of AGGGCGTA, the binding signal was found to be 0.00412 E-score.

Consider GTCCAATA, for which the binding signal was -0.145 E-score.

Take GAGTTACC: the binding signal was determined as 0.0503 E-score.

GACAACCA: the binding signal is -0.176 E-score.

In the case of AAAAACAC, the binding signal was found to be 0.368 E-score.

Consider GAAAATAA, for which the binding signal was -0.162 E-score.

As to AAAGCTAC, the binding signal is -0.0444 E-score.

With ATACGAGG, the binding signal is -0.0394 E-score.

Take ACCAAGCA: the binding signal stood at 0.0458 E-score.

In the case of GAGCCCTA, the binding signal is -0.14 E-score.

CTCCTTAA: the binding signal turned out to be 0.0345 E-score.

On to AAGTCCCT, for which the binding signal was -0.178 E-score.

As for CCAAGTTA, the binding signal was -0.0116 E-score.

As to ACCAACCA, the binding signal was found to be 0.0679 E-score.

Consider ATGGAAAT, for which the binding signal was -0.0483 E-score.

For AAGCCTTG, the binding signal is -0.292 E-score.

With ATATTGTC, the binding signal was -0.247 E-score.

Regarding GAAGACAC, the binding signal stood at 0.38 E-score.

As to CAGGAACA, the binding signal was 0.259 E-score.

For the sequence CATACCCA, the binding signal was 0.0643 E-score.

Consider CGACAAAA, for which the binding signal is -0.195 E-score.

Regarding GAAGCAAA, the binding signal was -0.136 E-score.

CCTATAAA: the binding signal is -0.0624 E-score.

In the case of AGCGCTGC, the binding signal was -0.246 E-score.

With ACGTTGCT, the binding signal is -0.321 E-score.

For CTCCCTAC, the binding signal was 0.046 E-score.

Turning to GATGGGTA, the binding signal stood at 0.118 E-score.

In the case of CTAGGCAA, the binding signal was -0.122 E-score.

Consider ATTGATCA, for which the binding signal is -0.229 E-score.

Regarding CCTGATCC, the binding signal was determined as 0.0875 E-score.

With TTAGCTAA, the binding signal is -0.162 E-score.

As to CCTCAGTA, the binding signal was -0.128 E-score.

Consider ACCCTCCC, for which the binding signal stood at 0.211 E-score.

As for AGTGATCA, the binding signal is 0.0118 E-score.

With AGGGGCAC, the binding signal was 0.0599 E-score.

In the case of GATTGAAA, the binding signal was -0.233 E-score.

AAGCGTCG: the binding signal was -0.133 E-score.

As to AGGAAGTC, the binding signal was -0.337 E-score.

With ACGATTGG, the binding signal was 0.0526 E-score.

For AATGAATC, the binding signal was -0.0763 E-score.

Regarding AGTGGTAT, the binding signal is 0.121 E-score.

As to GGCACGCC, the binding signal was -0.117 E-score.

Consider CACAAGAA, for which the binding signal is -0.0351 E-score.

For TAAAACCA, the binding signal was found to be 0.0369 E-score.

On to CCGCTTAA, for which the binding signal was -0.0821 E-score.

As to CTGATGTA, the binding signal was -0.155 E-score.

Regarding AATATGAA, the binding signal is -0.0409 E-score.

In the case of GACACGGA, the binding signal turned out to be 0.418 E-score.

As to CCGCGCCA, the binding signal amounted to 0.0253 E-score.

For the sequence ACCGCTAC, the binding signal came out at 0.108 E-score.

As for TACAAGTA, the binding signal amounted to 0.101 E-score.

TCACTAAA: the binding signal was -0.0158 E-score.

With CGTAGATC, the binding signal is -0.0924 E-score.

As to AGCAAGAG, the binding signal was -0.195 E-score.

Regarding CCTATTAA, the binding signal was -0.074 E-score.

Take CGTGCTAA: the binding signal was -0.0232 E-score.

As for AGTAAATA, the binding signal was -0.00499 E-score.

Turning to GCATAAAC, the binding signal amounted to 0.184 E-score.

Regarding AGAGTACG, the binding signal is -0.0487 E-score.

On to TAAGTATA, for which the binding signal is -0.204 E-score.

Regarding ACGTATGC, the binding signal is -0.123 E-score.

With ACAGCCGC, the binding signal was -0.192 E-score.

On to CTGGCTGA, for which the binding signal is -0.1 E-score.

Take ACGAGCAA: the binding signal was -0.0229 E-score.

With AAGAATTC, the binding signal was -0.147 E-score.

Regarding CAGACGGG, the binding signal was -0.0152 E-score.

Consider CACCTAAC, for which the binding signal was found to be 0.128 E-score.

In the case of AAGCTGCC, the binding signal was -0.254 E-score.

As for ATATGGCA, the binding signal was -0.0524 E-score.

With GACATGTC, the binding signal was -0.142 E-score.

With ACGGGAAG, the binding signal is -0.0811 E-score.

Consider CATCCAGC, for which the binding signal is -0.258 E-score.

For the sequence CGTATTCA, the binding signal is -0.102 E-score.

With CGCCCGCC, the binding signal was 0.036 E-score.

Regarding GCAAAAGA, the binding signal is -0.356 E-score.

Consider CCCAATCG, for which the binding signal was 0.0369 E-score.

CACAACCA: the binding signal was 0.0251 E-score.

For CTTACGCC, the binding signal was found to be 0.0495 E-score.

As to AATTAGGT, the binding signal was -0.036 E-score.

For the sequence AGCGACTA, the binding signal is -0.00444 E-score.

For GGATAGAC, the binding signal is -0.0792 E-score.

Regarding CGACTAAA, the binding signal was -0.0625 E-score.

As for GAGAGACA, the binding signal came out at 0.0496 E-score.

For AGGACGAA, the binding signal is -0.112 E-score.

For the sequence CCTACTCA, the binding signal was 0.0456 E-score.

With AATTCTGA, the binding signal was -0.0668 E-score.

With CTTCGTAA, the binding signal was -0.207 E-score.

For the sequence CACGTCTC, the binding signal came out at 0.0548 E-score.

Turning to GCTTTACA, the binding signal is -0.028 E-score.

In the case of AATGCGGA, the binding signal was -0.0909 E-score.

As to CTTGGATC, the binding signal was determined as 0.123 E-score.

In the case of CCCCTGAA, the binding signal was determined as 0.153 E-score.

In the case of CTGTTAAG, the binding signal is -0.117 E-score.

As for ATAGTTTC, the binding signal was -0.241 E-score.

With GCCCTGTA, the binding signal is -0.0173 E-score.

Take AACTCCAG: the binding signal is -0.000985 E-score.

On to AGCAAACT, for which the binding signal is -0.181 E-score.

Consider ACTCTAGG, for which the binding signal was 0.0647 E-score.

Turning to AATAGTGT, the binding signal came out at 0.355 E-score.

For CAGCGATG, the binding signal is -0.241 E-score.

Take CACATGCC: the binding signal is -0.131 E-score.

For the sequence AGGGCGTC, the binding signal was 0.119 E-score.

In the case of GGATGTAA, the binding signal was 0.0322 E-score.

As for CTCTCTAA, the binding signal is -0.198 E-score.

Take AACTTGTC: the binding signal is -0.263 E-score.

On to ATGTTTTG, for which the binding signal is -0.139 E-score.

Take AATAACCG: the binding signal is -0.238 E-score.

For AAGCGTAC, the binding signal was -0.00592 E-score.

Take GAGAGCCA: the binding signal is -0.136 E-score.

As for CAGCATTC, the binding signal is -0.228 E-score.

Consider CGACGGGC, for which the binding signal was 0.0314 E-score.

As to CATGCTCA, the binding signal is -0.0224 E-score.

For GATTTCTA, the binding signal is -0.139 E-score.

AACACGGA: the binding signal came out at 0.372 E-score.

For the sequence AACCCGCC, the binding signal amounted to 0.112 E-score.

For the sequence CGTGGACC, the binding signal was -0.12 E-score.

Source of the values: publication PMC10668032.
